# Data published in patent US7138231B2 (priority 2000, dated 2006).
# Columns and labels:
# [1] = system: HIV-1; conditions: cited from earlier work
# [2] = target: HIV-1 integrase (Human immunodeficiency virus type 1 group M subtype B, UniProt P04585); conditions: cited from earlier work
# [3] = system: HIV-1 patient viruses with protease V82A/F/S/T; format: cell-based; conditions: {}
# [4] = system: HIV-1 patient viruses with protease V82A/F/S/T and L90M
# [5] = system: HIV-1 patient viruses with protease V82 mutations; assay: Phenotypic susceptibility profiles of 270 patient virus samples with a mutation at position 82 (not 30 or 50); format: cell-based
smiles,measurement,setting,value
"O=C(O)C(=O)CC(=O)c1cccn1Cc1ccc(F)cc1 [L-731, 988]",inhibition of HIV-1 replication in vitro,[1],inhibit
same,inhibition of strand-transfer activity,[2],specifically inhibit
CC(C)CN(C[C@@H](O)[C@H](Cc1ccccc1)NC(=O)O[C@H]1CCOC1)S(=O)(=O)c1ccc(N)cc1 [amprenavir],Percent of viruses with indicated primary mutation(s) which are drug sensitive (fold change in IC50 < 2.5),[3],53.3%
same,Percent of viruses with indicated primary mutation(s) which are drug sensitive (fold change in IC50 < 2.5),[4],33.3%
same,wt % > 2.5,"[5]; Amprenavir FC>2.5, V82 mutations, position 10 wild type",34.8%
same,wt % > 2.5,"[5]; Amprenavir FC>2.5, V82 mutations, position 23 wild type",58.5%
same,wt % > 2.5,"[5]; Amprenavir FC>2.5, V82 mutations, position 32 wild type",57.7%
same,wt % > 2.5,"[5]; Amprenavir FC>2.5, V82 mutations, position 33 wild type",56.5%
same,wt % > 2.5,"[5]; Amprenavir FC>2.5, V82 mutations, position 37 wild type",55.6%
same,wt % > 2.5,"[5]; Amprenavir FC>2.5, V82 mutations, position 46 wild type",52.2%
same,wt % > 2.5,"[5]; Amprenavir FC>2.5, V82 mutations, position 53 wild type",57.0%
same,wt % > 2.5,"[5]; Amprenavir FC>2.5, V82 mutations, position 54 wild type",51.2%
same,wt % > 2.5,"[5]; Amprenavir FC>2.5, V82 mutations, position 61 wild type",61.8%
same,wt % > 2.5,"[5]; Amprenavir FC>2.5, V82 mutations, position 71 wild type",46.5%
same,wt % > 2.5,"[5]; Amprenavir FC>2.5, V82 mutations, position 84 wild type",55.8%
same,wt % > 2.5,"[5]; Amprenavir FC>2.5, V82 mutations, position 90 wild type",49.6%
same,mt % > 2.5,"[5]; Amprenavir FC>2.5, listed as 82: all samples with V82 mutations",60.0%
same,wt % > 10,"[5]; Amprenavir FC>10, V82 mutations, position 10 wild type",0.0%
same,wt % > 10,"[5]; Amprenavir FC>10, V82 mutations, position 11 wild type",9.5%
same,wt % > 10,"[5]; Amprenavir FC>10, V82 mutations, position 32 wild type",8.9%
same,wt % > 10,"[5]; Amprenavir FC>10, V82 mutations, position 33 wild type",6.5%
same,wt % > 10,"[5]; Amprenavir FC>10, V82 mutations, position 46 wild type",4.4%
same,wt % > 10,"[5]; Amprenavir FC>10, V82 mutations, position 53 wild type",8.9%
same,wt % > 10,"[5]; Amprenavir FC>10, V82 mutations, position 60 wild type",8.8%
same,wt % > 10,"[5]; Amprenavir FC>10, V82 mutations, position 71 wild type",4.7%
same,wt % > 10,"[5]; Amprenavir FC>10, V82 mutations, position 84 wild type",6.4%
same,wt % > 10,"[5]; Amprenavir FC>10, V82 mutations, position 90 wild type",5.9%
same,mt % > 10,"[5]; Amprenavir FC>10, listed as 82: all samples with V82 mutations",10.4%
same,Percent of viruses with indicated primary mutation(s) with reduced susceptibility (fold change in IC50 > 2.5),[5]; V82 mutations,60.0%
same,Percent of viruses with indicated primary mutation(s) with reduced susceptibility (fold change in IC50 > 10),[5]; V82 mutations,10.4%
